In the supplement of paper PMC4967469:
By IC50 is meant the dose at which the fit gives 50% viability; a limit (>, <) means that the fit lies beyond the doses tested. AUC sums up the same curve from the lowest dose to the 256-fold higher top dose; it is 1 without any effect and falls as sensitivity rises.

Compound: N#CC[C@H](C1CCCC1)n1cc(-c2ncnc3[nH]ccc23)cn1 [Ruxolitinib]
Experiment: Viability of human cancer cell lines after 72 h of drug (GDSC screen)
Method: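 Human cancer cell lines in 384-well plates, medium with 10% serum, drug for 72 h over a 256-fold dose range (nine 2-fold or five 4-fold steps up to the top dose). Adherent lines were fixed and stained with the nucleic acid dye Syto60, suspension lines read with resazurin; signal relative to control wells, capped at 0 and 100%. One two-parameter sigmoid per drug and line, fitted in a mixed model over all curves with the slope shared within a line.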

Cell Line	AUC	IC50
SUIT-2 (pancreas, adherent, top dose 5.24 µM)	0.978	> 5.24 µM
NTERA-2 cl.D1 (testis, adherent, top dose 5.24 µM)	0.984	> 5.24 µM
BE-13 (lymphoblastic leukaemia, suspension, top dose 5.24 µM)	0.985	> 5.24 µM
JJN-3 (haematopoietic neoplasm, suspension, top dose 5.24 µM)	0.99	> 5.24 µM
KARPAS-45 (lymphoblastic leukaemia, suspension, top dose 5.24 µM)	0.862	3.33 µM
NB17 (neuroblastoma, adherent, top dose 5.24 µM)	0.983	> 5.24 µM
LB771-HNC (head and neck, adherent, top dose 5.24 µM)	0.981	> 5.24 µM
HCC-15 (lung squamous cell carcinoma, adherent, top dose 5.24 µM)	0.981	> 5.24 µM
EW-16 (Ewing sarcoma, adherent, top dose 5.24 µM)	0.985	> 5.24 µM
DoTc2-4510 (cervix, adherent, top dose 5.24 µM)	0.987	> 5.24 µM
SW684 (fibrosarcoma, adherent, top dose 5.24 µM)	0.981	> 5.24 µM
SK-HEP-1 (liver, adherent, top dose 5.24 µM)	0.989	> 5.24 µM
EoL-1-cell (haematopoietic neoplasm, suspension, top dose 5.24 µM)	0.975	> 5.24 µM
MZ1-PC (pancreas, adherent, top dose 5.24 µM)	0.979	> 5.24 µM
T84 (large intestine, adherent, top dose 5.24 µM)	0.989	> 5.24 µM
NCI-H630 (large intestine, adherent, top dose 5.24 µM)	0.987	> 5.24 µM
OVK-18 (ovary, adherent, top dose 5.24 µM)	0.985	> 5.24 µM
JHOS-3 (ovary, adherent, top dose 5.24 µM)	0.983	> 5.24 µM
NCI-H1734 (lung adenocarcinoma, adherent, top dose 5.24 µM)	0.985	> 5.24 µM
RCC-ER (kidney, adherent, top dose 5.24 µM)	0.986	> 5.24 µM
OV-56 (ovary, adherent, top dose 5.24 µM)	0.989	> 5.24 µM
NCI-H1435 (lung adenocarcinoma, semi-adherent, top dose 5.24 µM)	0.99	> 5.24 µM
huH-1 (liver, adherent, top dose 5.24 µM)	0.984	> 5.24 µM
ALL-SIL (T-cell leukaemia, suspension, top dose 5.24 µM)	0.964	> 5.24 µM
EW-1 (Ewing sarcoma, semi-adherent, top dose 5.24 µM)	0.982	> 5.24 µM
697 (lymphoblastic leukaemia, suspension, top dose 5.24 µM)	0.982	> 5.24 µM

Cell Line	AUC	IC50
KYSE-520 (oesophagus, adherent, top dose 5.24 µM)	0.98	> 5.24 µM
LAMA-84 (chronic myeloid leukaemia, suspension, top dose 5.24 µM)	0.968	> 5.24 µM
JEG-3 (urogenital system, adherent, top dose 5.24 µM)	0.99	> 5.24 µM
KOPN-8 (B-cell leukaemia, suspension, top dose 5.24 µM)	0.99	> 5.24 µM
AM-38 (glioma, semi-adherent, top dose 5.24 µM)	0.98	> 5.24 µM
SK-PN-DW (Ewing sarcoma, adherent, top dose 5.24 µM)	0.98	> 5.24 µM
SW1710 (bladder, adherent, top dose 5.24 µM)	0.986	> 5.24 µM
T98G (glioma, adherent, top dose 5.24 µM)	0.989	> 5.24 µM
SUP-M2 (anaplastic large cell lymphoma, suspension, top dose 5.24 µM)	0.835	2.35 µM
C3A (liver, adherent, top dose 5.24 µM)	0.985	> 5.24 µM
EBC-1 (lung squamous cell carcinoma, adherent, top dose 5.24 µM)	0.983	> 5.24 µM
DEL (lymphoid neoplasm, suspension, top dose 5.24 µM)	0.966	> 5.24 µM
ES8 (Ewing sarcoma, adherent, top dose 5.24 µM)	0.987	> 5.24 µM
NCI-H1648 (lung adenocarcinoma, adherent, top dose 5.24 µM)	0.985	> 5.24 µM
MC-CAR (haematopoietic neoplasm, suspension, top dose 5.24 µM)	0.984	> 5.24 µM
SW13 (adrenal gland, adherent, top dose 5.24 µM)	0.987	> 5.24 µM
A427 (non-small cell lung carcinoma, adherent, top dose 5.24 µM)	0.98	> 5.24 µM
VMRC-MELG (melanoma, adherent, top dose 5.24 µM)	0.989	> 5.24 µM
HH (T-cell leukaemia, suspension, top dose 5.24 µM)	0.978	> 5.24 µM
SU8686 (pancreas, adherent, top dose 5.24 µM)	0.986	> 5.24 µM
MS751 (cervix, adherent, top dose 5.24 µM)	0.99	> 5.24 µM
HC-1 (hairy cell leukaemia, suspension, top dose 5.24 µM)	0.965	> 5.24 µM
PCI-30 (head and neck, adherent, top dose 5.24 µM)	0.985	> 5.24 µM
RXF393 (kidney, adherent, top dose 5.24 µM)	0.977	> 5.24 µM
HDLM-2 (Hodgkin lymphoma, suspension, top dose 5.24 µM)	0.607	0.642 µM
COR-L321 (lung, suspension, top dose 5.24 µM)	0.98	> 5.24 µM

Cell Line	AUC	IC50
Calu-3 (lung adenocarcinoma, adherent, top dose 5.24 µM)	0.983	> 5.24 µM
HuP-T4 (pancreas, adherent, top dose 5.24 µM)	0.96	> 5.24 µM
C2BBe1 (large intestine, adherent, top dose 5.24 µM)	0.986	> 5.24 µM
CGTH-W-1 (thyroid, adherent, top dose 5.24 µM)	0.984	> 5.24 µM
KARPAS-422 (B-cell lymphoma, suspension, top dose 5.24 µM)	0.98	> 5.24 µM
GB-1 (glioma, adherent, top dose 5.24 µM)	0.983	> 5.24 µM
SK-MEL-3 (melanoma, adherent, top dose 5.24 µM)	0.982	> 5.24 µM
HCC-56 (large intestine, adherent, top dose 5.24 µM)	0.987	> 5.24 µM
NCI-H847 (small cell lung carcinoma, adherent, top dose 5.24 µM)	0.975	> 5.24 µM
GI-1 (glioma, adherent, top dose 5.24 µM)	0.971	> 5.24 µM
WIL2-NS (lymphoid neoplasm, suspension, top dose 5.24 µM)	0.926	> 5.24 µM
CCK-81 (large intestine, adherent, top dose 5.24 µM)	0.99	> 5.24 µM
IHH-4 (thyroid, semi-adherent, top dose 5.24 µM)	0.993	> 5.24 µM
SW1573 (lung adenocarcinoma, adherent, top dose 5.24 µM)	0.973	> 5.24 µM
NCI-H524 (small cell lung carcinoma, suspension, top dose 5.24 µM)	0.988	> 5.24 µM
TE-10 (oesophagus, adherent, top dose 5.24 µM)	0.982	> 5.24 µM
CP66-MEL (melanoma, adherent, top dose 5.24 µM)	0.985	> 5.24 µM
SUP-HD1 (Hodgkin lymphoma, suspension, top dose 5.24 µM)	0.649	0.827 µM
CESS (acute myeloid leukaemia, suspension, top dose 5.24 µM)	0.99	> 5.24 µM
KELLY (neuroblastoma, adherent, top dose 5.24 µM)	0.985	> 5.24 µM
VM-CUB-1 (bladder, adherent, top dose 5.24 µM)	0.989	> 5.24 µM
LB996-RCC (kidney, adherent, top dose 5.24 µM)	0.983	> 5.24 µM
LC-1-sq (lung squamous cell carcinoma, adherent, top dose 5.24 µM)	0.983	> 5.24 µM
NCI-H2227 (small cell lung carcinoma, semi-adherent, top dose 5.24 µM)	0.98	> 5.24 µM
RT4 (bladder, adherent, top dose 5.24 µM)	0.987	> 5.24 µM
MDA-MB-175-VII (breast, adherent, top dose 5.24 µM)	0.987	> 5.24 µM
